Experimental data published in a collection of fitness landscapes (doi:10.1126/science.1257360).
This is one part of the list.

B1: PhoQ; a variant is named by its letters at X, in order, P23837 (parent)
chain: MKKLLRLFFPLSLRVRFLLATAAVVLVLSLAYGMVALIGYSVSFDKTTFRLLRGESNLFYTLAKWENNKLHVELPENIDKQSPTMTLIYDENGQLLWAQRDVPWLMKMIQPDWLKSNGFHEIEADVNDTSLLLSGDHSIQQQLQEVREDDDDAEMTHSVAVNVYPATSRMPKLTIVVVDTIPVELKSSYMVWSWFIYVLSANLLLVIPLLWVAAWWSLRPIEALAKEVRELEEHNRELLNPATTRELTSLVRNLNRLLKSERERYDKYRTTLTDLTHSLKTPLXXLQXXLRSLRSEKMSVSDAEPVMLEQISRISQQIGYYLHRASMRGGTLLSRELHPVAPLLDNLTSALNKVYQRKGVNISLDISPEISFVGEQNDFVEVMGNVLDNACKYCLEFVEISARQTDEHLYIVVEDDGPGIPLSKREVIFDRGQRVDTLRPGQGVGLAVAREITEQYEGKIVAGESMLGGARMEVIFGRQHSAPKDE

Variants of: B1
Assay: enrichment ratio after two sorts for PhoP signalling (ratio (wild type AVST 3.29)); higher = more functional
Conditions: with PhoP (E. coli)

Compared with RPMY, QALM is higher in enrichment ratio: ≤ 0.25 for the first, 10.2 for the second.

EHKA and RTWK cannot be ordered by enrichment ratio: ≤ 0.25 for the first, ≤ 0.25 for the second.

IGHP and YRVH cannot be ordered by enrichment ratio: ≤ 0.25 for the first, ≤ 0.25 for the second.

NQWD and FAFK cannot be ordered by enrichment ratio: ≤ 0.25 for the first, ≤ 0.25 for the second.

DDLN and NEMW cannot be ordered by enrichment ratio: ≤ 0.25 for the first, ≤ 0.25 for the second.

PESI and LMFT cannot be ordered by enrichment ratio: ≤ 0.25 for the first, ≤ 0.25 for the second.

ASER and FIQC cannot be ordered by enrichment ratio: ≤ 0.25 for the first, ≤ 0.25 for the second.

Going from SCGF to WKNF, the enrichment ratio falls from 6.99 to ≤ 0.25.

FIKV and YCTW cannot be ordered by enrichment ratio: ≤ 0.25 for the first, ≤ 0.25 for the second.

HAYY and EFNP cannot be ordered by enrichment ratio: ≤ 0.25 for the first, ≤ 0.25 for the second.

YVFY and NGYP cannot be ordered by enrichment ratio: ≤ 0.25 for the first, ≤ 0.25 for the second.

First: SMAQ
Second: EPDM
The enrichment ratio of the first is higher: 15.5 for the first, ≤ 0.25 for the second.

RVNQ and GRNW cannot be ordered by enrichment ratio: ≤ 0.25 for the first, ≤ 0.25 for the second.

VADF and VLFV cannot be ordered by enrichment ratio: ≤ 0.25 for the first, ≤ 0.25 for the second.

DWQS and NSVC cannot be ordered by enrichment ratio: ≤ 0.25 for the first, ≤ 0.25 for the second.

EPKL and LGQV cannot be ordered by enrichment ratio: ≤ 0.25 for the first, ≤ 0.25 for the second.

First: GNVQ
Second: INRF
The enrichment ratio of the first is higher: 6.4 for the first, ≤ 0.25 for the second.

GSKD and DLPP cannot be ordered by enrichment ratio: ≤ 0.25 for the first, ≤ 0.25 for the second.

YCPF and HRHT cannot be ordered by enrichment ratio: ≤ 0.25 for the first, ≤ 0.25 for the second.

AIWS and AVYQ cannot be ordered by enrichment ratio: ≤ 0.25 for the first, ≤ 0.25 for the second.

YRPN and HDYE cannot be ordered by enrichment ratio: ≤ 0.25 for the first, ≤ 0.25 for the second.

TYMR and YPDE cannot be ordered by enrichment ratio: ≤ 0.25 for the first, ≤ 0.25 for the second.

Compared with HCMI, SIWK is higher in enrichment ratio: ≤ 0.25 for the first, 4.31 for the second.

VAMP and KRTR cannot be ordered by enrichment ratio: ≤ 0.25 for the first, ≤ 0.25 for the second.

First: NELH
Second: EHNH
The enrichment ratio of the first is higher: 2.12 for the first, ≤ 0.25 for the second.

GSSK and NSKP cannot be ordered by enrichment ratio: ≤ 0.25 for the first, ≤ 0.25 for the second.

MCIQ and QNTQ cannot be ordered by enrichment ratio: ≤ 0.25 for the first, ≤ 0.25 for the second.

PRRC and KGKA cannot be ordered by enrichment ratio: ≤ 0.25 for the first, ≤ 0.25 for the second.

GQGL and WIVD cannot be ordered by enrichment ratio: ≤ 0.25 for the first, ≤ 0.25 for the second.

PGTV and IEEY cannot be ordered by enrichment ratio: ≤ 0.25 for the first, ≤ 0.25 for the second.

Going from LIVP to ACAV, the enrichment ratio rises from ≤ 0.25 to 3.32.

VPRP and WFTV cannot be ordered by enrichment ratio: ≤ 0.25 for the first, ≤ 0.25 for the second.

NPSI and RLDE cannot be ordered by enrichment ratio: ≤ 0.25 for the first, ≤ 0.25 for the second.

Going from FFCS to FVTM, the enrichment ratio rises from ≤ 0.25 to 1.76.

GCYF and HPVV cannot be ordered by enrichment ratio: ≤ 0.25 for the first, ≤ 0.25 for the second.

PKIV and IPSV cannot be ordered by enrichment ratio: ≤ 0.25 for the first, ≤ 0.25 for the second.

MKDY and RGCY cannot be ordered by enrichment ratio: ≤ 0.25 for the first, ≤ 0.25 for the second.

Going from AMGI to LQSC, the enrichment ratio falls from 6.8 to ≤ 0.25.

VTEW and NITY cannot be ordered by enrichment ratio: ≤ 0.25 for the first, ≤ 0.25 for the second.

Compared with TTAC, EDSH is lower in enrichment ratio: 3.47 for the first, ≤ 0.25 for the second.

ELSA and SFYF cannot be ordered by enrichment ratio: ≤ 0.25 for the first, ≤ 0.25 for the second.

QYGA and PFQP cannot be ordered by enrichment ratio: ≤ 0.25 for the first, ≤ 0.25 for the second.

First: EDPE
Second: ANAY
The enrichment ratio of the first is lower: ≤ 0.25 for the first, 36.4 for the second.

First: WLIV
Second: PCQP
The enrichment ratio of the first is lower: ≤ 0.25 for the first, 0.47 for the second.

YPKR and VEGG cannot be ordered by enrichment ratio: ≤ 0.25 for the first, ≤ 0.25 for the second.

First: TFFC
Second: SVTC
The enrichment ratio of the first is lower: ≤ 0.25 for the first, 3.84 for the second.

HYPF and NGKM cannot be ordered by enrichment ratio: ≤ 0.25 for the first, ≤ 0.25 for the second.

DQSC and MQEA cannot be ordered by enrichment ratio: ≤ 0.25 for the first, ≤ 0.25 for the second.

HCSF and IDHR cannot be ordered by enrichment ratio: ≤ 0.25 for the first, ≤ 0.25 for the second.

SDTG and NNKP cannot be ordered by enrichment ratio: ≤ 0.25 for the first, ≤ 0.25 for the second.

DLIG and VSEI cannot be ordered by enrichment ratio: ≤ 0.25 for the first, ≤ 0.25 for the second.

Compared with TCTR, WRPS is lower in enrichment ratio: 4.24 for the first, ≤ 0.25 for the second.

WRMC and SIYF cannot be ordered by enrichment ratio: ≤ 0.25 for the first, ≤ 0.25 for the second.

Going from FALG to EGFN, the enrichment ratio falls from 6.82 to ≤ 0.25.

RQYW and PCPQ cannot be ordered by enrichment ratio: ≤ 0.25 for the first, ≤ 0.25 for the second.

PVYL and REHG cannot be ordered by enrichment ratio: ≤ 0.25 for the first, ≤ 0.25 for the second.

YTNE and HVSV cannot be ordered by enrichment ratio: ≤ 0.25 for the first, ≤ 0.25 for the second.

NTPK and QIHN cannot be ordered by enrichment ratio: ≤ 0.25 for the first, ≤ 0.25 for the second.

QYED and LENM cannot be ordered by enrichment ratio: ≤ 0.25 for the first, ≤ 0.25 for the second.

WDLF and VYPY cannot be ordered by enrichment ratio: ≤ 0.25 for the first, ≤ 0.25 for the second.

KSWW and VNMY cannot be ordered by enrichment ratio: ≤ 0.25 for the first, ≤ 0.25 for the second.

MCAE and MHYI cannot be ordered by enrichment ratio: ≤ 0.25 for the first, ≤ 0.25 for the second.

LGCR and GHGM cannot be ordered by enrichment ratio: ≤ 0.25 for the first, ≤ 0.25 for the second.

THYT and FSRQ cannot be ordered by enrichment ratio: ≤ 0.25 for the first, ≤ 0.25 for the second.

HSYQ and YTYQ cannot be ordered by enrichment ratio: ≤ 0.25 for the first, ≤ 0.25 for the second.

LACH and MLGP cannot be ordered by enrichment ratio: ≤ 0.25 for the first, ≤ 0.25 for the second.

RQAG and HQRH cannot be ordered by enrichment ratio: ≤ 0.25 for the first, ≤ 0.25 for the second.

TDDT and FSEN cannot be ordered by enrichment ratio: ≤ 0.25 for the first, ≤ 0.25 for the second.

ILPD and WHCK cannot be ordered by enrichment ratio: ≤ 0.25 for the first, ≤ 0.25 for the second.

GKAA and NSKK cannot be ordered by enrichment ratio: ≤ 0.25 for the first, ≤ 0.25 for the second.

DAVL and YSIE cannot be ordered by enrichment ratio: ≤ 0.25 for the first, ≤ 0.25 for the second.

YNYK and PWQS cannot be ordered by enrichment ratio: ≤ 0.25 for the first, ≤ 0.25 for the second.

RECK and QKSH cannot be ordered by enrichment ratio: ≤ 0.25 for the first, ≤ 0.25 for the second.

YAPD and MGPI cannot be ordered by enrichment ratio: ≤ 0.25 for the first, ≤ 0.25 for the second.

HCAF and WWFR cannot be ordered by enrichment ratio: ≤ 0.25 for the first, ≤ 0.25 for the second.

Compared with NVIF, QAHI is higher in enrichment ratio: ≤ 0.25 for the first, 0.526 for the second.

For FWRY, the enrichment ratio was ≤ 0.25.
